From article PMC5700166 come the findings set out here.

Holding throughout (assay): protein-binding microarray (PBM)
Common to all, as to settings: PBM: ~300 nM protein, 6 mM HEPES pH 7.8, 80 mM KCl, 0.5 mM EDTA, 0.5 mM EGTA, 6% glycerol, 35 ng/ul poly-dIdC, 1% milk, 1 h, room temperature; Ap Aiptasia and Nv Nematostella (sea anemones) / Co Capsaspora / Aq Amphimedon (sponge) / Dm Drosophila / Hu human; RHD is the Rel homology domain; high values mean tight binding; most listed sequences are background and not binding sites; double strand, one strand shown

For assay [1], the target named is T1, GST-Ap-NF-kB RHD (UniProt A0A913YAJ5).
T1 sequence: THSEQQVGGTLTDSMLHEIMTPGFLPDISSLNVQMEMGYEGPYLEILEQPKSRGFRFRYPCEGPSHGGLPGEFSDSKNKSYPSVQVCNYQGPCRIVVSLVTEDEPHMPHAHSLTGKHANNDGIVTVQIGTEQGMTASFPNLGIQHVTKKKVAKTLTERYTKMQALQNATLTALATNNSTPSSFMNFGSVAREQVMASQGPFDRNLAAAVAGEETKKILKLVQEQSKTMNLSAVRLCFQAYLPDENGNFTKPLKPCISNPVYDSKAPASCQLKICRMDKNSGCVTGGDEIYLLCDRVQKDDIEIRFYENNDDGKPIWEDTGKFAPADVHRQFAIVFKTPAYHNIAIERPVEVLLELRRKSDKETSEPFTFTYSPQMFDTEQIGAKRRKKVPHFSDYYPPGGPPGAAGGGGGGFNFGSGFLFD

Assay [2] has as its target T2, GST-Nv-NF-kB (Cys allele) (UniProt E5G601).
T2 sequence: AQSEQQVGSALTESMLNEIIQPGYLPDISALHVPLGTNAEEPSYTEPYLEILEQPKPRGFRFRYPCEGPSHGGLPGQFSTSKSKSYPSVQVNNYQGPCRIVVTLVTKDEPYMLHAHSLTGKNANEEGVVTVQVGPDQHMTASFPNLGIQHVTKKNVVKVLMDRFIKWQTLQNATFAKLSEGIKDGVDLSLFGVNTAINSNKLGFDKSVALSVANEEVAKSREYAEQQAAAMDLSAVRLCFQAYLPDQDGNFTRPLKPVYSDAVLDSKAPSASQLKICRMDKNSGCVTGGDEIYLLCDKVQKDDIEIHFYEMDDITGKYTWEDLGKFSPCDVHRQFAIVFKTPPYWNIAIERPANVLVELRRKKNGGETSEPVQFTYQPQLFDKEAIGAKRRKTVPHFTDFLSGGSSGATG

Assay [3] has as its target T3, GST-Co-NF-kB (UniProt F1ARL5).
T3 sequence: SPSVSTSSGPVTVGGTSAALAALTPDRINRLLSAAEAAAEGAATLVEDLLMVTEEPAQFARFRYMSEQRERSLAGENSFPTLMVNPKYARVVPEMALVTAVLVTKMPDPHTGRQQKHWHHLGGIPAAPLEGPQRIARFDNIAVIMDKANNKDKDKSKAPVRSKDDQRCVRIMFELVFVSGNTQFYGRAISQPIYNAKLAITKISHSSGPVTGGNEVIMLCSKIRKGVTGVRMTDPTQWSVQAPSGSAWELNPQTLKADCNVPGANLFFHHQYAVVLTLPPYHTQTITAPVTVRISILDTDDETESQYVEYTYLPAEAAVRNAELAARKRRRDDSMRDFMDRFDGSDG

The target of assay [4] is T4, GST-Dm-Relish (UniProt Q94527).
T4 sequence: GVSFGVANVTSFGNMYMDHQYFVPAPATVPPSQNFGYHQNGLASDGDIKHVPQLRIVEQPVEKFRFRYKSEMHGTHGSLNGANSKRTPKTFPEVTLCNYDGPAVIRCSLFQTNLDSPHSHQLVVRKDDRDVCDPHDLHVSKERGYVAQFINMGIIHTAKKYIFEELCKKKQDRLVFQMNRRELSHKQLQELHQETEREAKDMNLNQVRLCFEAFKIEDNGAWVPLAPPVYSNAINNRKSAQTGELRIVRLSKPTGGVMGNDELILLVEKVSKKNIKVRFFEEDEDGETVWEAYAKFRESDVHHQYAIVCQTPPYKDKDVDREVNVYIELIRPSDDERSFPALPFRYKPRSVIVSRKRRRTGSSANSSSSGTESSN

For assay [5], the target named is T5, GST-Aq-NF-kB (UniProt A9Y5G7).
T5 sequence: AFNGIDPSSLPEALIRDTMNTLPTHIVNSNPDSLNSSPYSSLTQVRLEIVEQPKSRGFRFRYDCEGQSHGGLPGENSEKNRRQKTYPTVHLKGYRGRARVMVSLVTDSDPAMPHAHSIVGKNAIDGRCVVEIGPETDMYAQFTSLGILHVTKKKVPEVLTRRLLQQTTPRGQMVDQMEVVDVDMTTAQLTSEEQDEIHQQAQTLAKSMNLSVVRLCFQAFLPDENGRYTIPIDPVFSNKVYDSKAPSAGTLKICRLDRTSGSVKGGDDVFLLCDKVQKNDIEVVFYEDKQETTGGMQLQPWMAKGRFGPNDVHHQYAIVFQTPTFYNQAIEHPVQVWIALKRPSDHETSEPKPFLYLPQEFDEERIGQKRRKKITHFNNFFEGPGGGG

Only a part is listed here, and it is no random draw. The list includes weakly bound sequences.

As to “CCGATTAACATCATACTTGACTCTGATGTTAATCGGGTCTTGATTCGCTTGACGCTGCTG”, the binding signal in assay [1] was -0.517 z-score; in assay [2] it was -0.104 z-score; in assay [3], -0.437 z-score; in assay [4] it was -0.674 z-score; in assay [5] it was -0.813 z-score.
For “CCGATTAACATCAGACTATGCGGTGATGTTAATCGGGTCTTGATTCGCTTGACGCTGCTG” the same measures were 0.192 z-score, -0.539 z-score, 0.332 z-score, 0.253 z-score and 0.248 z-score.
For “CCGATTAACATCATAATGCGCAATGATGTTAATCGGGTCTTGATTCGCTTGACGCTGCTG” the same measures were -0.234 z-score, 0.286 z-score, -1.23 z-score, -0.505 z-score and -0.294 z-score.
For “CCGATTAACATCATAGGGATGCTTGATGTTAATCGGGTCTTGATTCGCTTGACGCTGCTG” the same measures were 0.649 z-score, 0.592 z-score, 0.267 z-score, -0.551 z-score and 0.514 z-score.
On to “CCGATTAACATCACGGACATTCCTGATGTTAATCGGGTCTTGATTCGCTTGACGCTGCTG”, for which the binding signal was 0.243 z-score in assay [1]; -1.23 z-score in assay [2]; 0.235 z-score in assay [3]; 0.22 z-score in assay [4]; 1.97 z-score in assay [5].
For “CCGATTAACATCAGAGAGACACTTGATGTTAATCGGGTCTTGATTCGCTTGACGCTGCTG” the same measures were -0.862 z-score, -0.5 z-score, -0.636 z-score, -0.577 z-score and -0.488 z-score.
For “CCGATTAACATCAGATACAGGACTGATGTTAATCGGGTCTTGATTCGCTTGACGCTGCTG” the same measures were 0.126 z-score, -0.125 z-score, -0.235 z-score, -0.553 z-score and -0.318 z-score.
The like results for “CCGATTAACATCACTGCTTAAGATGATGTTAATCGGGTCTTGATTCGCTTGACGCTGCTG” were, in that order, -0.165 z-score, -0.657 z-score, 0.186 z-score, -0.72 z-score and -0.554 z-score.
“CCGATTAACATCAGGAACTATCCTGATGTTAATCGGGTCTTGATTCGCTTGACGCTGCTG”: the binding signal in assay [1] was -0.848 z-score; in assay [2], 0.459 z-score; in assay [3] it was -0.514 z-score; in assay [4] it was -0.403 z-score; in assay [5], -0.231 z-score.
The like results for “CCGATTAACATCACACAAACGTTTGATGTTAATCGGGTCTTGATTCGCTTGACGCTGCTG” were, in that order, -1.16 z-score, -0.528 z-score, -1.72 z-score, 0.424 z-score and -0.546 z-score.
For “CCGATTAACATCAAGGAAGCGCTTGATGTTAATCGGGTCTTGATTCGCTTGACGCTGCTG” the same measures were -0.733 z-score, -0.208 z-score, -1.11 z-score, -0.89 z-score and -0.742 z-score.
For “CCGATTAACATCACGTAACTTGATGATGTTAATCGGGTCTTGATTCGCTTGACGCTGCTG” the same measures were -0.695 z-score, -0.61 z-score, -0.43 z-score, -0.0427 z-score and -0.208 z-score.
For “CCGATTAACATCAGCCCGTTCTATGATGTTAATCGGGTCTTGATTCGCTTGACGCTGCTG”, the binding signal in assay [1] is 0.153 z-score; in assay [2], 0.361 z-score; in assay [3], -0.202 z-score; in assay [4], -0.509 z-score; in assay [5], -0.085 z-score.
For “CCGATTAACATCAGAGCGTTTGCTGATGTTAATCGGGTCTTGATTCGCTTGACGCTGCTG” the same measures were -0.494 z-score, -0.86 z-score, -0.667 z-score, -0.83 z-score and -0.586 z-score.
For “CCGATTAACATCAGCGCGATTTCTGATGTTAATCGGGTCTTGATTCGCTTGACGCTGCTG” the same measures were -0.777 z-score, 0.00338 z-score, -0.659 z-score, -0.517 z-score and -0.75 z-score.
On to “CCGATTAACATCAATGCCATTCGTGATGTTAATCGGGTCTTGATTCGCTTGACGCTGCTG”, for which the binding signal in assay [1] is 0.00142 z-score; in assay [2], -0.711 z-score; in assay [3], -0.629 z-score; in assay [4] it was -0.402 z-score; in assay [5], -0.5 z-score.
As to “CCGATTAACATCAAGATGAACCATGATGTTAATCGGGTCTTGATTCGCTTGACGCTGCTG”, the binding signal in assay [1] is -0.0737 z-score; in assay [2], -1.32 z-score; in assay [3], -0.591 z-score; in assay [4] it was -0.979 z-score; in assay [5] it was -0.551 z-score.
The like results for “CCGATTAACATCAACGGTGGAAATGATGTTAATCGGGTCTTGATTCGCTTGACGCTGCTG” were, in that order, 0.826 z-score, -0.229 z-score, 0.075 z-score, -0.3 z-score and 0.383 z-score.
For the sequence “CCGATTAACATCACTCCAGTTACTGATGTTAATCGGGTCTTGATTCGCTTGACGCTGCTG”, the binding signal was -0.185 z-score in assay [1]; -0.492 z-score in assay [2]; -0.182 z-score in assay [3]; -0.272 z-score in assay [4]; -0.298 z-score in assay [5].
The like results for “CCGATTAACATCAATGTCATAGATGATGTTAATCGGGTCTTGATTCGCTTGACGCTGCTG” were, in that order, -0.906 z-score, 0.12 z-score, -0.134 z-score, -0.431 z-score and -0.195 z-score.
The like results for “CCGATTAACATCATTAGGTTTATTGATGTTAATCGGGTCTTGATTCGCTTGACGCTGCTG” were, in that order, -0.453 z-score, -0.419 z-score, -0.226 z-score, -0.222 z-score and -0.263 z-score.
For “CCGATTAACATCATGCTACTATCTGATGTTAATCGGGTCTTGATTCGCTTGACGCTGCTG” the same measures were -0.0732 z-score, -0.0155 z-score, -0.436 z-score, -0.846 z-score and -0.436 z-score.
As to “CCGATTAACATCACAAACGACAGTGATGTTAATCGGGTCTTGATTCGCTTGACGCTGCTG”, the binding signal in assay [1] was -0.869 z-score; in assay [2] it was 0.173 z-score; in assay [3] it was -0.242 z-score; in assay [4], 0.854 z-score; in assay [5] it was -0.344 z-score.
As for “CCGATTAACATCATCTGTGAGCCTGATGTTAATCGGGTCTTGATTCGCTTGACGCTGCTG”, the binding signal is -0.439 z-score in assay [1]; -0.242 z-score in assay [2]; -0.241 z-score in assay [3]; -0.873 z-score in assay [4]; -0.598 z-score in assay [5].
For “CCGATTAACATCAACCTGATGGATGATGTTAATCGGGTCTTGATTCGCTTGACGCTGCTG” the same measures were -0.126 z-score, 0.401 z-score, -0.882 z-score, -0.938 z-score and -0.442 z-score.
In the case of “CCGATTAACATCAATGATCACTCTGATGTTAATCGGGTCTTGATTCGCTTGACGCTGCTG”, the binding signal in assay [1] was -0.335 z-score; in assay [2], 0.119 z-score; in assay [3] it was -0.0997 z-score; in assay [4], 0.162 z-score; in assay [5], -0.185 z-score.
The like results for “CCGATTAACATCATGCATCCGTATGATGTTAATCGGGTCTTGATTCGCTTGACGCTGCTG” were, in that order, 0.0371 z-score, -0.582 z-score, -0.853 z-score, -0.679 z-score and -0.307 z-score.
The like results for “CCGATTAACATCAGGGCTATGGATGATGTTAATCGGGTCTTGATTCGCTTGACGCTGCTG” were, in that order, 0.388 z-score, -0.175 z-score, 0.603 z-score, -0.164 z-score and -0.229 z-score.
